Reference: patent US20220324932A1 (CSPC MEGALITH BIOPHARMACEUTICAL, published 2022)

T1: human IL-2Rβ-His (human, UniProt P14784 27-240)
T1 construct: Captured on a CM-5 chip by an anti-histidine antibody; also called CD122; IL-2Rβ subunit; not shown: His tag
T1 sequence (looked up): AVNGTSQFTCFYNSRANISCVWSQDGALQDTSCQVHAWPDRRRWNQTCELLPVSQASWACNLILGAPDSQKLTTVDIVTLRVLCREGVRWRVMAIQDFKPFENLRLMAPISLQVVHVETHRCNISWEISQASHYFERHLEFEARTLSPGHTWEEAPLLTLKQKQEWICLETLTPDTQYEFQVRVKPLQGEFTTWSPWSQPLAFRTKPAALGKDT

T2: IL-2Rα (CD25) on the cell surface of mouse T cells (CTLL-2 cells; Treg cells of C57BL/6 mice) (mouse, UniProt P01590 22-268)
T2 sequence (looked up): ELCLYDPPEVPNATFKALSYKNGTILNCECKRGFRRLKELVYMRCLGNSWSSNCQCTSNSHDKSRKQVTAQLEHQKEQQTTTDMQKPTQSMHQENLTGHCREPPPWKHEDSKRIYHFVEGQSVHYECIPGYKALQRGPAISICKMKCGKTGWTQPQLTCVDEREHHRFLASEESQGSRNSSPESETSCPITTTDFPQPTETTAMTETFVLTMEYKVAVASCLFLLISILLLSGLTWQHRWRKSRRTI

T3: human IL-2Rα-His (human, UniProt P01589 22-217, limits assumed)
T3 construct: Captured on a CM-5 chip by an anti-histidine antibody; also called CD25; IL-2Rα subunit; not shown: His tag
T3 sequence (looked up): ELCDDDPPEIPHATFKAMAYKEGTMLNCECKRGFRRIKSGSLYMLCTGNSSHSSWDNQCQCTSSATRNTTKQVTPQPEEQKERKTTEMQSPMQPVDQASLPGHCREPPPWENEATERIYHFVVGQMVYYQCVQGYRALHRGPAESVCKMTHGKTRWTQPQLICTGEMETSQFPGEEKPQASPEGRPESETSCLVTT


Tests used:
[1] = biological target: T1, human IL-2Rβ-His; assay: SPR (Biacore T-200), IL-2Rβ-His captured; Kd relative to Aldesleukin IL-2
Description: (§1) The binding affinities of modified IL-2 protein or modified IL-2 protein-PEG conjugates to IL-2Rα or IL-2Rβ were measured by SPR (Biacore T-200) and compared to that of Aldesleukin IL-2 protein. Anti-histidine antibody was coupled to the surface of a CM-5 sensor chip using EDC/NHS chemistry. For IL-2Rα binding test, human IL-2Rα-His was used as the captured ligand over the surface. For IL-2Rβ binding test, human IL-2Rβ-His was used as the captured ligand over the surface. Serial dilutions of modified IL-2 protein or modified IL-2 protein-PEG conjugates were made with Running Buffer (1×HEPES, with 0.005% Tween-20, pH 7.4). These serial dilutions were allowed to bind to the IL-2Rα-His or IL-2Rβ-His ligands for 60 seconds. Binding responses were measured in response unit (RU) and plotted against protein concentration to determine Kd values (see Table 1). The binding affinities of each construct to IL-2Rα or IL-2Rβ were further calculated as fold changes relative to those of Aldesleukin IL-2 protein to the same IL-2R subtype (see Table 1).

[2] = biological target: T1, human IL-2Rβ-His; assay: SPR (Biacore T-200), IL-2Rβ-His captured by anti-histidine antibody on CM-5 chip
Description: as §1

[3] = biological target: T2, IL-2Rα (CD25) on the cell surface of …; assay: cell-based or functional assay
[4] = biological target: T3, human IL-2Rα-His; assay: SPR (Biacore T-200), IL-2Rα-His captured; Kd relative to Aldesleukin IL-2
Description: as §1

[5] = biological target: T3, human IL-2Rα-His; assay: SPR (Biacore T-200), IL-2Rα-His captured by anti-histidine antibody on CM-5 chip
Description: as §1

[6] = biological target: T3, human IL-2Rα-His; assay: SPR (Biacore T-200), IL-2Rα-His captured; reference itself
Description: as §1

[7] = biological target: T1, human IL-2Rβ-His; assay: SPR (Biacore T-200), IL-2Rβ-His captured; reference itself
Description: as §1

Binder | Fold change relative to IL-2 (wt) [1] | Kd [2] | bioactivity in inducing CTLL-2 cell growth, compared to its parent protein IL-2A1 [3] | percentage of Treg cells in blood of C57BL/6 mice after treatment [3] | fold decrease in bioactivity in inducing CTLL-2 cell growth, compared to parent IL-2 Aldesleukin [3] | Fold change relative to IL-2 (wt) [4] | Kd [5] | Fold change relative to IL-2 (wt) [6] | Fold change relative to IL-2 (wt) [7]
PEG-40K-IL-2A1 (IL-2A1 conjugated with 40 kDa methoxy-PEG-amine) (ligand, 40 kDa methoxy-PEG-amine conjugated by mTGase to the engineered Q residue (F43Q), also called DP006-A-40) not shown | 10.9 fold | 5.85 µM | – | – | – | – | – | – | –
PEG-20K-IL-2A1 (IL-2A1 conjugated with 20 kDa methoxy-PEG-amine) (ligand, 20 kDa methoxy-PEG-amine conjugated by mTGase to the engineered Q residue (F43Q), The conjugation site Q43 was mapped by LC-MS/MS only for the 30 kDa conjugate; also called DP006-A-20; 20 kDa PEG-IL-2A1) not shown | 8.34 fold | – | ~3 fold | 0.28% | – | – | – | – | –
PEG-30K-IL-2A1 (IL-2A1 conjugated with 30 kDa methoxy-PEG-amine) (ligand, 30 kDa methoxy-PEG-amine conjugated at Q43, also called DP006-A-30; DP630a) not shown | 10.1 fold | 5.41 µM | – | – | – | – | – | – | –
IL-2A1 (modified IL-2 protein with engineered Q residue F43Q relative to IL-2 Aldesleukin) (ligand, also called DP006A; DP006-A) not shown | 15.7 fold | 8.39 µM | – | 0.52% | ~4 fold | 476 fold | 17.2 µM | – | –
IL-2 Aldesleukin (human recombinant IL-2) (ligand, Desalanyl-1, serine-125 human IL-2 (no N-terminal alanine, C125S), not glycosylated, made in E. coli; also called Aldesleukin IL-2; parent IL-2) not shown | – | 0.536 µM | – | 3.23% | – | – | 0.0361 µM | 1 fold | 1 fold
